Over roughly 33,000 sequences, “E-score (-0.5 to 0.5)” has its median near -0.035; the highest 2% begin near 0.34. Some of the results follow.
biological target: T1, Mot3 (UniProt P54785); test: PBM E-score (8-mer binding enrichment) (E-score (-0.5 to 0.5)); higher = stronger / more preferred TF binding; most listed sequences are background and not binding sites; details: protein concentration: 200 nM; construct: GST-full length
T1 sequence: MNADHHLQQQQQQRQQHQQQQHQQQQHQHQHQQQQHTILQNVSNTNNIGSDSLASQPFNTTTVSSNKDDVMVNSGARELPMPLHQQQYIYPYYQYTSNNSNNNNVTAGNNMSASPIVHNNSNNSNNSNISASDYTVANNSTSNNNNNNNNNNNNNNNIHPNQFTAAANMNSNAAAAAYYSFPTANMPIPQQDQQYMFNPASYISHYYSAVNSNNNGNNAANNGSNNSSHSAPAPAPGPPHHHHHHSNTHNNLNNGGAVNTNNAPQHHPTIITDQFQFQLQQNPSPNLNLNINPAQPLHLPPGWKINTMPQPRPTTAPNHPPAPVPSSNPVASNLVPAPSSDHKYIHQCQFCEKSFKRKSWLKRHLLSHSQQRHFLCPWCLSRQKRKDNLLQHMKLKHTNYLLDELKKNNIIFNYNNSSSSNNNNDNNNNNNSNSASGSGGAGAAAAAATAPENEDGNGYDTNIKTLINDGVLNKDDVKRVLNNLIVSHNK
Experimental: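 Universal 'all 10-mer' protein binding microarrays (Agilent AMADID 015681) probed with GST-tagged S. cerevisiae TFs (full-length or DBD) made by in vitro transcription/translation (PURExpress), about 100-200 nM. Bound TF was detected with fluorescent anti-GST. Each ungapped 8-mer (which stands for itself and its reverse complement) is scored by the PBM enrichment score (E-score), a modified Wilcoxon-Mann-Whitney statistic from -0.5 to +0.5, computed with the Universal PBM Analysis Suite. Scale: above 0.35 generally sequence-specific binding.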

Sequence | PBM E-score
ACTCATCG | -0.0267
GACAGGAC | -0.231
GCTAACGA | -0.117
AACTTACA | 0.284
CATAAATG | -0.172
CATCTTTC | 0.174
ACACCCAT | -0.0356
TCACCCCA | -0.125
AATATCCA | 0.053
AGTATGAC | -0.103
CACCCCAG | -0.066
CCGTCAAC | -0.138
AATCCACA | -0.0213
AGGTTGGG | -0.173
GAGTGGAC | -0.192
GCGATGAC | -0.0443
AAAATGTG | 0.0732
CCGTGATA | -0.153
ATATAGAT | 0.0278
AACCCACG | -0.112
GTCGTGTA | 0.376
ATCGGCAT | -0.0895
CACTCTTC | -0.209
CCATAGCC | -0.296
CAGCCCCG | -0.0445

Sequence | PBM E-score
CCGGCCGA | -0.333
TAGCGTCA | -0.118
CACGCAGG | 0.316
CGACAGCC | -0.216
AAGACATC | -0.0992
GTTAATGA | 0.124
AAGCTAGA | -0.186
GGAAGATA | -0.0613
CGCACCTC | -0.0771
AAACCAGG | -0.076
ACCCTCAC | -0.277
GATTTCCA | -0.131
ATAGCTGA | -0.182
CATGTTAC | 0.332
GTAGCAAA | 0.0238
CAGTTGCA | -0.063
CTCATAAG | -0.0998
TCTGCGCA | 0.00968
AGAGGTAC | -0.0723
CGAAATAG | 0.0515
CTCGAAGC | -0.037
AAGTAGAA | 0.0505
ACAAGACC | 0.094
ACCAGGAG | -0.061
GCCGCGAA | -0.332

Sequence | PBM E-score
CTAATAGA | 0.0893
ATATAGTA | 0.169
CATCCCCC | -0.304
CGTCCGAC | 0.0527
GACGAAGC | -0.0978
GGAACGAC | 0.134
ACTTGAGC | -0.218
GATTTTAC | 0.167
ACATGAGT | 0.279
GTCGTGGA | -0.26
CCTATATC | 0.0144
AATTCCTC | -0.0457
AATAGACT | -0.0514
ACTCTCCC | -0.284
ACCAAGGA | 0.184
ATCGGGGC | -0.171
CCGTGTAC | 0.34
CAGTACTA | -0.0199
ATAACCCC | -0.207
CTTCCATC | -0.16
CGACCAGA | -0.12
GATCTTGC | 0.007
ATCAGTTG | 0.00124
AAGCGCGA | -0.206
GACATAGC | 0.111

Sequence | PBM E-score
ATCGCACG | -0.0828
TCGGCAAA | -0.134
GAGCGATC | -0.313
ACCACTTG | -0.0392
CAAGGATA | -0.0115
CACGGTAG | -0.0486
CCCCTACG | -0.21
CCAGCTTC | -0.187
CGCACTAC | -0.134
CCCAAAAC | 0.0863
AGCCCCTC | -0.202
CACTAGTG | -0.12
CATTATGA | -0.16
GTCGTTAA | 0.078
AGACGGGG | -0.321
GGCGAAGA | -0.144
CTGAATAA | 0.0747
TAATTATA | 0.206
ACTATTGA | -0.0506
GAGTATGA | -0.008
AGTGGATA | -0.17
TCCGATAA | -0.172
ATCGCTTA | -0.159
GACGGATA | -0.11
AGATTCGG | 0.0498

Sequence | PBM E-score
AGCACATC | -0.0674
TGCACTAA | 0.0486
CGGGGGAG | -0.248
ACGTCTTG | 0.0197
CTATGGAC | -0.12
TATCCACA | 0.0608
ATTGCTGG | -0.17
AGTTTCCA | -0.214
ACAATCCT | 0.0286
CACATATG | 0.0157
ATGTGTCA | 0.153
AACCCTGC | -0.198
GATTTATA | 0.12
CTGGCTAC | -0.161
CGGGCTGC | -0.142
GTACCTAA | 0.374
ACCCGCCC | -0.0478
AACTCTGG | -0.105
AATAATCC | 0.134
CGTAGCTA | -0.0484
CATTCTAC | 0.173
AGCATCGC | -0.31
AGCGTATG | -0.0586
GACTCCTA | -0.00028
CCCGGGTA | 0.011

Sequence | PBM E-score
AAACGTTG | 0.0415
AACGACTT | -0.255
CTTAGAAG | -0.209
CAATACTA | -0.0095
CAGTCATG | -0.139
AGAGGCTA | -0.231
GTAGGCAA | 0.49
GTTCCTCA | -0.026
AGCAATAG | -0.0253
AACATACA | 0.321
ACCGTGCG | 0.0264
CGGCTTAA | -0.0557
GATCTACC | -0.168
CCCCACAG | 0.0973
ACGTCGTG | 0.114
CACGCTCA | 0.0572
AGGAGACT | -0.202
AACGTTGG | 0.122
CACCAAGA | -0.0614
ATTGGTCC | 0.00839
ATGGCGGA | -0.302
GCGGATAC | 0.0777
ATGTGCGA | -0.0836
CGTGCGCC | 0.042
ATTTTTTG | 0.0963

Sequence | PBM E-score
GCCCAAAA | 0.0762
CCGAACGG | -0.309
CTCCACAA | 0.0493
GGGTAGGA | 0.065
CTAAAGGA | 0.148
AACCCTCC | -0.107
ATAAGTCG | -0.183
AGTGGCAA | -0.144
ATGGACTG | -0.136
CTGAAAGC | 0.0365
AATTTCTC | -0.0417
TCCACCAA | -0.203
AGTTGAAT | 0.0466
AAAGAGCT | -0.0166
CAGCTCGC | -0.0969
CGACAACC | -0.0603
AAGGGATA | -0.0261
AACCAAGA | 0.00054
GCAAGCGA | 0.0905
GAGTACTA | 0.102
GAAATTTC | 0.111
AGGACCGC | -0.169
